Read counts are not given, so values of variants with three or more changes are uncertain.
B1: LINE1-mini (parent)
chain: GGCAGAGCUCAACACAGCGUGGCAAAGUGGCUGUGGCUAGACUGCC

Variants of: B1
Test: self-cleavage, relative activity (ratio to wild type); higher = more cleavage; in vitro, sequencing; the parent is a self-cleaving ribozyme

Variant | self-cleavage
GGCAGAGAUCAACACAGCGUGGCAAAGUGGCUGAGGCUAGACUGAC | 0.19
GGCAGAGAUCAACACAGCGUGGCAAAGUGGCUGAGGCUAGACUGCU | 0.2
GGCAGAGAUCAACACAGCGUGGCAAAGUGGCUGGGGCUAGAUUGCC | 0.25
GGCAGAGAUCAACACAGCGUGGCAAAGUGGCUGGGGCUAGACUACC | 0.68
GGCAGAGAUCAACACAGCGUGGCAAAGUGGCUGUGGCAAGAGUGCC | 0.26
GGCAGAGAUCAACACAGCGUGGCAAAGUGGCUGUGGCAACACUGCC | 0.12
GGCAGAGAUCAACACAGCGUGGCAAAGUGGCUGUGGCAAGACUACC | 0.05
GGCAGAGAUCAACACAGCGUGGCAAAGUGGCUGUGGCGAGAAUGCC | 0.01
GGCAGAGGUCCACACAGCGUGGAAAAGUGGCUGUGACUAGACUGCC | 0.01
GGCAGAGGUCCACACAGCUUGGCAAAGUGGCUGUGGCUAGACUGCC | 0.01
GGCAGAGGUCCACACAGCGUGUCAAAGUGGCUGUGGUUAGACUGCC | 0
GGCAGAGGUCCACACAGCGUGGCAAAAUGGCUGUGGCUAGACCGCC | 0.02
GGCAGAGGUCGCCACAGCGUGGCAAAAUGGCUGUGGCUAGACUGCC | 0.02
GGCAGAGGUCGACACAGCGUGGCACAGUGGCUGUGGCUGGACUGCC | 0.01
GGCAGAGGUCGACACAGCGUGGCAAAGUGGCUAUGGCUAGACUGCC | 0.03
GGCAGAGGUCGACACAGCGUGGCAAAGUGGCUGUGACUAGACUGCC | 0.03
GGCAGAGGUCUAUGCAGCGUGGCUAAGUGGCUGUGGCUAGACUGCC | 0.03
GGCAGAGGUCUACAAAGCGUCGCAAAGUGGCUGUGGCUAGACUGCC | 0.01
GGCAGAGGUCUACACAUCGUGGCAAAGUGGCUGUGACUAGACUGCC | 0.02

Variant | self-cleavage
GGCAGAGGUCUACACAGCUUGGUAAAGUGGCUGUGGCUAGACUGCC | 0.02
GGCAGAGGUCUACACAGCGUGGCAAAGUGGCAGUGGCUACACUGCC | 0
GGCAGAGGUCACAACAGCAUGGCAAAGUGGCUGUGGCUAGACCGCC | 0.01
GGCAGAGGUCACCACAGAGUGGAAAAGUGGCUGUAGGUAGACUGCC | 0
GGCAGAGGUCACCACAGCGUGGGAAAGUGGCUGUGGCUAGACAGCC | 0
GGCAGAGGUCACCACACCUUGGCAAAGUGGCUGUGGCUAGACUGCC | 0
GGCAGAGGUCACCACAGCGUGGCAAAGUGGCUGUGGCUAGACUACC | 0.01
GGCAGAGGUCAGUACAGCGUGACAAAGUGGCUGUGGCUAGACUGCC | 0.02
GGCAGAGGUCAGUACAGCGUGGCAAAGUGGCUGGGUCUAGACUGCC | 0.02
GGCAGAGGUCAGCACAGAGUGGCAAAGUGGCUGUGGCUAGACAGCC | 0.02
GGCAGAGGUCAGCACAGGGUGGCAAAGUGGCUGUGGCUAUACUGCC | 0.05
GGCAGAGGUCAGCACAGCGUGGCAAAGUGGCUCUGGCUAGAUUGCC | 0.03
GGCAGAGGUCAGCACAGCGUGGCAAAGUGGCUGUGGCAAGACUGCC | 0.18
GGCAGAGGUCAUCUCAGCGUGGCAAAGGGGCUGAGGCUAGACUGCC | 0.06
GGCAGAGGUCAUCACAGCGUAGCAACGUGGCUGUGGCUAGACUGCC | 0.18
GGCAGAGGUCAUCACAGCGUGGCAAAGUGACUGUGGCUAGACUGCC | 0.06
GGCAGAGGUCAACCCAGUGUGGCAAAGUGGCUGUGGCUAGACUGCC | 0.03
GGCAGAGGUCAACCCAGCAUGGCAAAGUAGAUGUGGCUAGACUGCC | 0.03
GGCAGAGGUCAACCCAGCGUGUAAAAGUGGCUGUGACUAGACUGCC | 0.02

Variant | self-cleavage
GGCAGAGGUCAACCCAGCGUGGCAAAGUCGCUGUGGCUAGACAGCC | 0.01
GGCAGAGGUCAACCCAGCGUGGCAAAGUUGCUGUUGCUAGACUGAC | 0.01
GGCAGAGGUCAACCCAGCGUGGCAAAGUGACUGUGGCUAGACUGCC | 0.03
GGCAGAGGUCAACGCAGAGUGGCAAAGUGGCUGUGGCUAGACUUCC | 0.01
GGCAGAGGUCAACGCAGCGUGGAAAAGUGGUUGUGGCUAGACUGCC | 0.02
GGCAGAGGUCAACGCAGCAUGGCAAAGGGGCUGUGGCUACACUGCC | 0.06
GGCAGAGGUCAACGCAGCGUAGCAAAGUGGCUGUGGCUAGUCUGCC | 0.01
GGCAGAGGUCAACGCAGCGUGGCAAAGUCGCUGUGGCUAGACUGCC | 0.01
GGCAGAGGUCAACGCAGCGUGGCAAAGUGGCUGUGGCUAGACUCCC | 0.03
GGCAGAGGUCAACUCAGCCUGGCAAAGUGGCUGUGGCUAGACUGCC | 0.03
GGCAGAGGUCAACUCAGCGUGGCAAAGUGGCUUUGGCUAGACUGCC | 0.03
GGCAGAGGUCAACACCGCGUGGCAAAGUGGCUGUGGCUAGAAUGCC | 0.02
GGCAGAGGUCAACACCGCAUGGCAUAGUGUCUGUGGCUAGACUGCC | 0.02
GGCAGAGGUCAACACGGCGUGGCAGAGUCGCUGUGGCUAGACUGCC | 0.02
GGCAGAGGUCAACACGGGGUGGUAACGUGGCUGAGGCUAGACUGCC | 0.02
GGCAGAGGUCAACACGGCGUGGCAAAGUGGCUGUGGCUAGACUGCU | 0.01
GGCAGAGGUCAACACGACGUGGCAAAGUGGCUAUGGCUAGACUGCC | 0.02
GGCAGAGGUCAACACGACGUGGCAAAGUGGCUGUGGCCAGACUGCC | 0.12

Reference: the RNAGym collection of RNA variant scans (doi:10.7554/elife.90254)
